Assay results: PubChem BioAssay AID588855 (National Center for Advancing Translational Sciences (NCATS), 2011)
Out of some 410,000 compounds screened, about 5,000 (1.2%) were called active. The inconclusive results got no clear call from the source; some entries with a clear call stand among them for comparison. The call rests on the fitted dose curve; in most records, active means well fitted inhibition curve with a large enough effect; inconclusive means small, poorly fitted or top-dose-only effect; inactive means no such curve, though single readings can be large or run the other way. Potencies of inconclusive entries are doubtful fits and often do not repeat.
Potency means the concentration at half of the fitted maximal effect; tags describe the fitted curve by direction and shape.

Assay: qHTS for Inhibitors of TGF-b; further: nearly all actives have a fitted effect of over 65% in size
Conditions: HepG2 CAGA-GFP TGF-b/SMAD3 reporter, GFP fluorescence, 18 h, TGF-beta stimulated, 500 pg/mL final; series mostly up to 46.1 µM
From the text: TGF-b is a main component in the TGF-b signaling pathway which plays diverse roles in cellular and development pathways. TGF-b is the mediated by the transcription factors Smads. Although the Smad-dependent pathway is the primary canonical TGF-b signaling node, TGF-b1 can also activate alternative signaling pathways, including those involving MAPK (ERK, JNK and p38). This interaction may mediate or enhance Smad-dependent responses, or can exert Smad-independent effects. The complexity of this signaling cascade allows the TGF-b superfamily to perform unique, overlapping or redundant functions. We believe that targeting the TGF-beta pathway at the Smad-transcription factor level may eliminate the consequences of disrupting the entire pathway and offer specificity without affecting other signaling pathways. Smad3 is the primary transducer of TGF-b's signals and Smad3 regulates many functions attributed to TGF-b signaling. We hypothesize that Smad3 inhibitors will selectively eliminate Smad3-specific TGF-beta signals without undesired off-target effects. We aim to identify Smad3-small molecule antagonists using a quantitative high throughput screening (qHTS) approach.
A high-throughput assay was developed to screen the NIH Molecular Libraries Small Molecule Repository (MLSMR). This is a cell based assay, where TGF-b is tagged with GFP. A counterscreen is run that looks at cytotoxicity (please see summary AID).
MH087449NIH Chemical Genomics Center [NCGC]
NIH Molecular Libraries Probe Centers Network [MLPCN]
Assay Submitter (PI): Sushil Rane, National Institute of […]
Suspensions of trypsinized HEPG2 CAGA-GFP cells were dispensed into white, tissue culture-treated, solid 1536-well plates at 5uL/well (1000 cells/well final concentration) in DMEM medium supplemented with 1% FBS. Plates were incubated at 37 degrees C for 2 hours, after which 23 nL of compounds or DMSO were delivered to each well using a pin tool. One uL of recombinant TGF-beta in DMEM (1% FBS) was then dispensed (500 pg/mL final concentration), and plates were incubated at 37 degrees C for 18 hours. The plates were measured on an Acumen eX3 Explorer plate reader for GFP fluorescence (ex488/em500-530). GFP values were calculated by determining the mean GFP fluorescence of individual cells, and compiling these values for each well to determine a total well GFP signal. The %Activity was determined from the corrected fluorescence values. A titration of the known TGF-B inhibitor SB431542 was included to monitor plate performance, while unstimulated HEPG2 (-TGF-B) control wells were used to normalize %Activity of identified inhibitors; unstimulated wells corresponded to 100%Activity (full inhibition), while stimulated cell controls (+DMSO) were used to normalize 0%Activity (no inhibition).
Concentration-response curves were fitted to the signals arising from the resulting fluorescence. The concentration-effect curves were then classified based on curve quality (r2), response magnitude and degree of measured activity, and compounds were subsequently categorized based on their curve class.
For `C=CCN1C(=O)/C(=C/c2cccs2)C(=O)NC1=S`, the Potency was inconclusive: 35.5 µM [inhibitor, single point].
For `Cc1ccc(S(=O)(=O)Cc2ccc(C(=O)N3CCC4(CC3)OCCO4)o2)cc1`, the Potency was “inactive”.
For `CCOc1ccc(N2C(=O)/C(=C\c3cccs3)C(=O)NC2=S)cc1`, the Potency was inconclusive: 15.8 µM [inhibitor, single point].
For `CCCCCn1c(=O)c(C(=O)Nc2nc3ccccc3[nH]2)c(O)c2ccccc21`, the Potency was “inactive”.
In the case of `CC1CCCC(C)N1/N=C/c1c[nH]c2ccc(Br)cc12` (stereo not drawn), the Potency is reported as inconclusive: 28.2 µM [inhibitor, single point].
In the case of `O=C(CN1CCN(c2ccccc2)CC1)Nc1cccc(C(F)(F)F)c1`, the Potency is reported as inconclusive: 17.8 µM [inhibitor, single point].
For `COC(=O)C1=C(c2cccc(OCc3ccccc3)c2)C[C@@H]2CC[C@H]1N2C(=O)NCc1cccc(F)c1`, the Potency was inconclusive: 31.6 µM [inhibitor, single point].
For `Cc1cccc(OP(N)(=O)Oc2cccc(C)c2)c1`, the Potency was “inactive”.
In the case of `Fc1ccc(C[n+]2c(-c3ccccc3)cc(-c3ccccc3)cc2-c2ccccc2)cc1`, the Potency is reported as inconclusive: 35.5 µM [inhibitor, single point].
For `CCCOP(=O)(OCCC)C(Nc1ccc(C(C)C)cc1)c1ccc([N+](=O)[O-])cc1` (stereo not drawn), the Potency was inconclusive: 35.5 µM [inhibitor, single point].
In the case of `O=c1c2ccccc2[nH]c(=S)n1-c1cccnc1`, the Potency is reported as “inactive”.
With `CCC1C(c2ccccc2)NC(c2ccccc2)CC1(O)c1ccc(F)cc1` (stereo not drawn) the Potency was inconclusive: 35.5 µM [inhibitor, single point].
With `CCC(=NCCC(c1ccccc1)c1ccccc1)c1c(O)n(C)c(=O)n(C)c1=O` the Potency was “inactive”.
With `COC(=O)c1c(C)[nH]c(C(=O)C(Cc2ccccc2)N(C)C)c1C` (stereo not drawn) the Potency was inconclusive: 35.5 µM [inhibitor, single point].
In the case of `CN(Cc1ccccc1)C(=O)c1cccc(NC(=O)Cc2ccc([N+](=O)[O-])cc2)c1`, the Potency is reported as inconclusive: 35.5 µM [inhibitor, single point].
With `CC(C)CNC(=O)c1c(N)n(Cc2ccco2)c2nc3ccccc3nc12` the Potency was active: 22.4 µM.
In the case of `COc1ccccc1CCNCc1cc2c(cc1[N+](=O)[O-])OCO2`, the Potency is reported as “inactive”.
With `CCOc1ccc(NC(=O)C(=S)NC2CCCCC2)cc1` the Potency was inconclusive: 3.16 µM [inhibitor, single point].
For `NC(Cc1ccc(F)cc1)c1csc(Nc2ncccn2)n1` (stereo not drawn), the Potency was inconclusive: 10 µM [inhibitor, partial curve, poor fit].
For `COc1ccc(-n2nnnc2C(c2ccccc2OC(F)(F)F)N2CCC(n3c(=O)[nH]c4ccccc43)CC2)cc1` (stereo not drawn), the Potency was active: 11.2 µM.
In the case of `CCCSc1nc2ccccc2c(=O)n1-c1ccccc1OC`, the Potency is reported as inconclusive: 20 µM [inhibitor, single point].
In the case of `COc1ccc(S(=O)(=O)Nc2ccccc2OC)cc1N=Nc1c(O)[nH]c(=S)[nH]c1=O`, the Potency is reported as inconclusive: 25.1 µM [inhibitor, single point].
In the case of `CC(C)Sc1nnc([C@@H](N)Cc2c[nH]c3ccccc23)o1`, the Potency is reported as inconclusive: 35.5 µM [inhibitor, single point].
For `C#CC(C)(CC)NC(=O)Cn1nnc(-c2ccc(OCc3ccccc3C)cc2)n1` (stereo not drawn), the Potency was inconclusive: 0.251 µM [inhibitor, full curve, poor fit].
In the case of `Cc1ccc(-c2nnc(Nc3ccc(OC(F)(F)Cl)cc3)c3ccccc23)cc1S(=O)(=O)NC(C)(C)CO`, the Potency is reported as inconclusive: 5.62 µM [inhibitor, full curve, poor fit].
For `CCCCCCCCC(=O)NCc1ccc(O)c(OC)c1`, the Potency was “inactive”.
For `Cc1ccc(/C=C2\C(=O)NC(=O)N(CC3CCCO3)C2=O)s1` (stereo not drawn), the Potency was inconclusive: 35.5 µM [inhibitor, single point].
For `CN(C)CCn1cnc2ccccc21`, the Potency was “inactive”.
With `O=c1oc2ccccc2c(O)c1C(c1ccc([N+](=O)[O-])cc1)c1c(O)c2ccccc2oc1=O` the Potency was inconclusive: 17.8 µM [inhibitor, single point].
With `Cc1ccc(C(=O)CN2CCOCC2)cc1` the Potency was “inactive”.
With `CCOC(=O)c1sc(/N=C/c2c(O)n(-c3ccccc3)c(=O)[nH]c2=O)c(C#N)c1C` the Potency was “inactive”.
For `CC(=CCOc1ccc2ccc(=O)oc2c1)C1=CC(=O)C(C)(C)O1`, the Potency was inconclusive: 5.01 µM [inhibitor, partial curve, poor fit].
For `O=c1c2ccccc2[nH]c(=S)n1-c1cccc(C(F)(F)F)c1`, the Potency was inconclusive: 35.5 µM [inhibitor, single point].
In the case of `Cc1cc(-c2ccccc2)cc(-c2ccccc2)[n+]1CCc1ccccc1`, the Potency is reported as inconclusive: 17.8 µM [inhibitor, single point].
In the case of `COc1cc(C2c3cc4c(cc3C(O)C3COC(=O)C23)OCO4)cc(OC)c1OC` (stereo not drawn), the Potency is reported as inconclusive: 0.316 µM [inhibitor, full curve, poor fit].
For `O=C(CF)N(O)c1ccc(C=Cc2ccccc2)cc1`, the Potency was active: 7.08 µM.
For `COC(=O)C1=C(c2ccc(F)cc2OCc2ccccc2)C[C@@H]2CC[C@H]1N2C(=O)NCc1ccc2c(c1)OCO2`, the Potency was “inactive”.
For `COc1cc(C(=O)Nc2ccc(Br)cc2C(=O)c2ccccc2Cl)cc(OC)c1OC`, the Potency was inconclusive: 35.5 µM [inhibitor, single point].
For `CC1=CC(C)CC(C)OC(=O)CC(c2ccc(O)cc2)NC(=O)C(Cc2c(Br)[nH]c3ccccc23)N(C)C(=O)C(C)NC(=O)C(C)C1` (stereo not drawn), the Potency was active: 15.8 µM.
With `O=S1(=O)N(CCN2CC=C(c3c[nH]c4cc(F)ccc34)CC2)c2cccc3c2N1CCC3` the Potency was inconclusive: 11.2 µM [inhibitor, partial curve, poor fit].
For `COc1ccccc1NS(=O)(=O)c1cc(NC(=O)c2ccc(Cl)nc2)ccc1N1CCCC1`, the Potency was inconclusive: 8.91 µM [inhibitor, partial curve, poor fit].
For `O=C(C(=O)N1CCOCC1)c1cn(Cc2c(F)cccc2Cl)c2ccccc12`, the Potency was “inactive”.
In the case of `COc1ccc(Br)cc1CNCCc1cccc(Cl)c1`, the Potency is reported as inconclusive: 22.4 µM [inhibitor, single point].
